# Experimental data from the supplement of paper PMC8728848.
# Some of the results follow.
# Legend:
# Assay in all cases: glycan array binding signal (z-score within array); higher = stronger binding
# Conditions in all cases: glycan notation: IUPAC condensed, linker removed
# [1] = target: Neu5Ac(a2-3)Gal(b1-3)GalNAc
# Outline: (§1)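 Arrays were curated from the Consortium for Functional Glycomics database, 3228 in total, and kept only where the protein sequence was available. Binding is expressed as a within-array Z-score. This score was averaged across arrays of the same protein sequence at different concentrations or buffers and across linkers, and negative values can be read as non-binding.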
# [2] = target: Neu5Ac(a2-3)Gal(b1-3)GalNAc(b1-3)Gal(a1-4)Gal(b1-4)Glc
# Outline: as §1
# [3] = target: Neu5Ac(a2-3)Gal(b1-3)GalNAc(b1-4)Gal(b1-4)Glc
# Outline: as §1
# [4] = target: Neu5Ac(a2-3)Gal(b1-3)GalNAc(b1-4)[Neu5Ac(a2-3)]Gal(b1-4)Glc
# Outline: as §1
# [5] = target: Neu5Ac(a2-3)Gal(b1-3)GalNAc(b1-4)[Neu5Ac(a2-8)Neu5Ac(a2-3)]Gal(b1-4)Glc
# Outline: as §1
# [6] = target: Neu5Ac(a2-3)Gal(b1-3)GalNAc6S
# Outline: as §1
# [7] = target: Neu5Ac(a2-3)Gal(b1-3)GlcNAc
# Outline: as §1
# [8] = target: Neu5Ac(a2-3)Gal(b1-3)GlcNAc(b1-2)Man
# Outline: as §1
# [9] = target: Neu5Ac(a2-3)Gal(b1-3)GlcNAc(b1-2)Man(a1-3)[GlcNAc(b1-4)][Neu5Ac(a2-3)Gal(b1-3)GlcNAc(b1-2)Man(a1-6)]Man(b1-4)GlcNAc(b1-4)GlcNAc
# Outline: as §1
# [10] = target: Neu5Ac(a2-3)Gal(b1-3)GlcNAc(b1-2)Man(a1-3)[Neu5Ac(a2-3)Gal(b1-3)GlcNAc(b1-2)Man(a1-6)]Man(b1-4)GlcNAc(b1-4)GlcNAc
# Outline: as §1
# [11] = target: Neu5Ac(a2-3)Gal(b1-3)GlcNAc(b1-2)[Neu5Ac(a2-3)Gal(b1-3)GlcNAc(b1-4)]Man(a1-6)[Neu5Ac(a2-3)Gal(b1-3)GlcNAc(b1-2)Man(a1-3)]Man(b1-4)GlcNAc(b1-4)GlcNAc
# Outline: as §1
# [12] = target: Neu5Ac(a2-3)Gal(b1-3)GlcNAc(b1-3)Gal(b1-3)GlcNAc
# Outline: as §1
# [13] = target: Neu5Ac(a2-3)Gal(b1-3)GlcNAc(b1-3)Gal(b1-4)GlcNAc
# Outline: as §1
# [14] = target: Neu5Ac(a2-3)Gal(b1-3)GlcNAc(b1-3)GalNAc
# Outline: as §1
# [15] = target: Neu5Ac(a2-3)Gal(b1-3)GlcNAc(b1-6)GalNAc
# Outline: as §1
# [16] = target: Neu5Ac(a2-3)Gal(b1-3)GlcNAc6S
# Outline: as §1
# [17] = target: Neu5Ac(a2-3)Gal(b1-3)[Fuc(a1-4)]GlcNAc
# Outline: as §1
# [18] = target: Neu5Ac(a2-3)Gal(b1-3)[Fuc(a1-4)]GlcNAc(b1-3)Gal(b1-3)[Fuc(a1-4)]GlcNAc
# Outline: as §1
# [19] = target: Neu5Ac(a2-3)Gal(b1-3)[Fuc(a1-4)]GlcNAc(b1-3)Gal(b1-4)[Fuc(a1-3)]GlcNAc
# Outline: as §1
# [20] = target: Neu5Ac(a2-3)Gal(b1-3)[GlcNAc(b1-6)]GalNAc
# Outline: as §1
# [21] = target: Neu5Ac(a2-3)Gal(b1-3)[Neu5Ac(a2-6)]GalNAc
# Outline: as §1
# [22] = target: Neu5Ac(a2-3)Gal(b1-3)[Neu5Ac(a2-6)]GlcNAc(b1-3)[Fuc(a1-3)[Gal(b1-4)]GlcNAc(b1-6)]Gal(b1-4)Glc
# Outline: as §1
# [23] = target: Neu5Ac(a2-3)Gal(b1-3)]Neu5Ac(a2-3)Gal(b1-4)]GlcNAc
# Outline: as §1
# Neu5Ac(a2-3)Gal(b1-4)Glc = target: Neu5Ac(a2-3)Gal(b1-4)Glc
# Outline: as §1
# [24] = target: Neu5Ac(a2-3)Gal(b1-4)GlcNAc
# Outline: as §1
# [25] = target: Neu5Ac(a2-3)Gal(b1-4)GlcNAc(b1-2)Man
# Outline: as §1
# [26] = target: Neu5Ac(a2-3)Gal(b1-4)GlcNAc(b1-2)Man(a1-3)[GlcNAc(b1-4)][Neu5Ac(a2-3)Gal(b1-4)GlcNAc(b1-2)Man(a1-6)]Man(b1-4)GlcNAc(b1-4)GlcNAc
# Outline: as §1
# [27] = target: Neu5Ac(a2-3)Gal(b1-4)GlcNAc(b1-2)Man(a1-3)[Neu5Ac(a2-3)Gal(b1-4)GlcNAc(b1-2)Man(a1-6)]Man(b1-4)GlcNAc(b1-4)GlcNAc
# Outline: as §1
# [28] = target: Neu5Ac(a2-3)Gal(b1-4)GlcNAc(b1-2)Man(a1-3)[Neu5Ac(a2-3)Gal(b1-4)GlcNAc(b1-2)Man(a1-6)]Man(b1-4)GlcNAc(b1-4)[Fuc(a1-6)]GlcNAc
# Outline: as §1
# [29] = target: Neu5Ac(a2-3)Gal(b1-4)GlcNAc(b1-2)Man(a1-3)[Neu5Ac(a2-6)Gal(b1-4)GlcNAc(b1-2)Man(a1-6)]Man(b1-4)GlcNAc(b1-4)GlcNAc
# Outline: as §1
# [30] = target: Neu5Ac(a2-3)Gal(b1-4)GlcNAc(b1-2)[Neu5Ac(a2-3)Gal(b1-4)GlcNAc(b1-4)]Man(a1-3)[GlcNAc(b1-4)][Neu5Ac(a2-3)Gal(b1-4)GlcNAc(b1-2)[Neu5Ac(a2-3)Gal(b1-4)GlcNAc(b1-6)]Man(a1-6)]Man(b1-4)GlcNAc(b1-4)GlcNAc
# Outline: as §1
# [31] = target: Neu5Ac(a2-3)Gal(b1-4)GlcNAc(b1-2)[Neu5Ac(a2-3)Gal(b1-4)GlcNAc(b1-4)]Man(a1-3)[GlcNAc(b1-4)][Neu5Ac(a2-3)Gal(b1-4)GlcNAc(b1-4)Man(a1-6)]Man(b1-4)GlcNAc(b1-4)GlcNAc
# Outline: as §1
# [32] = target: Neu5Ac(a2-3)Gal(b1-4)GlcNAc(b1-2)[Neu5Ac(a2-3)Gal(b1-4)GlcNAc(b1-6)]Man(a1-6)[Neu5Ac(a2-3)Gal(b1-4)GlcNAc(b1-2)Man(a1-3)][GlcNAc(b1-4)]Man(b1-4)GlcNAc(b1-4)GlcNAc
# Outline: as §1
# [33] = target: Neu5Ac(a2-3)Gal(b1-4)GlcNAc(b1-3)Gal
# Outline: as §1
# [34] = target: Neu5Ac(a2-3)Gal(b1-4)GlcNAc(b1-3)Gal(b1-3)GlcNAc
# Outline: as §1
# [35] = target: Neu5Ac(a2-3)Gal(b1-4)GlcNAc(b1-3)Gal(b1-4)GlcNAc
# Outline: as §1
# [36] = target: Neu5Ac(a2-3)Gal(b1-4)GlcNAc(b1-3)Gal(b1-4)GlcNAc(b1-2)Man(a1-3)[Neu5Ac(a2-3)Gal(b1-4)GlcNAc(b1-3)Gal(b1-4)GlcNAc(b1-2)Man(a1-6)]Man(b1-4)GlcNAc(b1-4)GlcNAc
# Outline: as §1
# [37] = target: Neu5Ac(a2-3)Gal(b1-4)GlcNAc(b1-3)Gal(b1-4)GlcNAc(b1-3)Gal(b1-4)GlcNAc
# Outline: as §1
# [38] = target: Neu5Ac(a2-3)Gal(b1-4)GlcNAc(b1-3)Gal(b1-4)GlcNAc(b1-3)Gal(b1-4)GlcNAc(b1-2)Man(a1-3)[Neu5Ac(a2-3)Gal(b1-4)GlcNAc(b1-3)Gal(b1-4)GlcNAc(b1-3)Gal(b1-4)GlcNAc(b1-2)Man(a1-6)]GalNAc
# Outline: as §1
# [39] = target: Neu5Ac(a2-3)Gal(b1-4)GlcNAc(b1-3)Gal(b1-4)GlcNAc(b1-3)GalNAc
# Outline: as §1
# [40] = target: Neu5Ac(a2-3)Gal(b1-4)GlcNAc(b1-3)Gal(b1-4)GlcNAc(b1-3)[Neu5Ac(a2-3)Gal(b1-4)GlcNAc(b1-3)Gal(b1-4)GlcNAc(b1-6)]GalNAc
# Outline: as §1
# [41] = target: Neu5Ac(a2-3)Gal(b1-4)GlcNAc(b1-3)Gal(b1-4)GlcNAc(b1-6)[Gal(b1-3)]GalNAc
# Outline: as §1
# [42] = target: Neu5Ac(a2-3)Gal(b1-4)GlcNAc(b1-3)Gal(b1-4)[Fuc(a1-3)]GlcNAc
# Outline: as §1
# [43] = target: Neu5Ac(a2-3)Gal(b1-4)GlcNAc(b1-3)GalNAc
# Outline: as §1
# [44] = target: Neu5Ac(a2-3)Gal(b1-4)GlcNAc(b1-3)[Neu5Ac(a2-3)Gal(b1-4)GlcNAc(b1-6)]GalNAc
# Outline: as §1
binder,measurement,setting,value
HPL (Tachypleus tridentatus) (protein) MEDDCTCVTDRSLEGKLMKHPSTPAVYQILDGCRRLVPNPPTYNNIYKNWECIQSNILEKLLCKCDSLSNGAELIKGSGDTVYLLSNGVKRPIADPETFNGFCFDWNKIKTYSDIVINSLSTGPIIIIKHHHHHH,glycan array binding signal (z-score),[1],-0.291
same,glycan array binding signal (z-score),[2],0.002
same,glycan array binding signal (z-score),[3],0.468
same,glycan array binding signal (z-score),[4],-0.28
same,glycan array binding signal (z-score),[5],-0.101
same,glycan array binding signal (z-score),[6],-0.245
same,glycan array binding signal (z-score),[7],-0.135
same,glycan array binding signal (z-score),[8],-0.264
same,glycan array binding signal (z-score),[9],-0.042
same,glycan array binding signal (z-score),[10],2.02
same,glycan array binding signal (z-score),[11],0.574
same,glycan array binding signal (z-score),[12],-0.294
same,glycan array binding signal (z-score),[13],-0.341
same,glycan array binding signal (z-score),[14],-0.225
same,glycan array binding signal (z-score),[15],-0.069
same,glycan array binding signal (z-score),[16],0.017
same,glycan array binding signal (z-score),[17],-0.015
same,glycan array binding signal (z-score),[18],0.058
same,glycan array binding signal (z-score),[19],0.228
same,glycan array binding signal (z-score),[20],-0.336
same,glycan array binding signal (z-score),[21],-0.03
same,glycan array binding signal (z-score),[22],-0.312
same,glycan array binding signal (z-score),[23],-0.206
same,glycan array binding signal (z-score),Neu5Ac(a2-3)Gal(b1-4)Glc,-0.177
same,glycan array binding signal (z-score),[24],-0.2
same,glycan array binding signal (z-score),[25],0.852
same,glycan array binding signal (z-score),[26],-0.271
same,glycan array binding signal (z-score),[27],-0.142
same,glycan array binding signal (z-score),[28],-0.143
same,glycan array binding signal (z-score),[29],0.123
same,glycan array binding signal (z-score),[30],-0.344
same,glycan array binding signal (z-score),[31],-0.189
same,glycan array binding signal (z-score),[32],-0.292
same,glycan array binding signal (z-score),[33],-0.418
same,glycan array binding signal (z-score),[34],-0.333
same,glycan array binding signal (z-score),[35],-0.19
same,glycan array binding signal (z-score),[36],0.434
same,glycan array binding signal (z-score),[37],-0.261
same,glycan array binding signal (z-score),[38],1.54
same,glycan array binding signal (z-score),[39],-0.193
same,glycan array binding signal (z-score),[40],0.27
same,glycan array binding signal (z-score),[41],0.185
same,glycan array binding signal (z-score),[42],0.12
same,glycan array binding signal (z-score),[43],-0.163
same,glycan array binding signal (z-score),[44],-0.093
